PMC9692854
Results are given in words; binding and its absence hold for the method and conditions named.

T1: Beauveria bassiana photolyase Phr1 (B. bassiana) (UniProt J4KQS2)
T1 sequence: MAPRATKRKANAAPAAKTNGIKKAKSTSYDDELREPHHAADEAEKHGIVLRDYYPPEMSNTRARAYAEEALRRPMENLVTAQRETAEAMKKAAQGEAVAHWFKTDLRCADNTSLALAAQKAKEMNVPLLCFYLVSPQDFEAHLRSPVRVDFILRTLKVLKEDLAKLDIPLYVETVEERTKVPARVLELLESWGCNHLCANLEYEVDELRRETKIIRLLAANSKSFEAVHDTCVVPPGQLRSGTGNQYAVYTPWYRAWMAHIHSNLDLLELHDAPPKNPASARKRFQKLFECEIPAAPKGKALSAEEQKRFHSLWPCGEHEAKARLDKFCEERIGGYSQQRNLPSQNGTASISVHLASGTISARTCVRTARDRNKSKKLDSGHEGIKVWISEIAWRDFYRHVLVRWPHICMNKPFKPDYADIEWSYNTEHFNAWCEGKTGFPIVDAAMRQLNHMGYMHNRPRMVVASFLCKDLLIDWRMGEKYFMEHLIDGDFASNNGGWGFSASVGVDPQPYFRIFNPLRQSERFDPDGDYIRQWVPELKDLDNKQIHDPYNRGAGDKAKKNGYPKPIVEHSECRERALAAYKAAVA

T2: Beauveria bassiana photolyase Phr2 (B. bassiana) (UniProt J4WK53)
T2 sequence: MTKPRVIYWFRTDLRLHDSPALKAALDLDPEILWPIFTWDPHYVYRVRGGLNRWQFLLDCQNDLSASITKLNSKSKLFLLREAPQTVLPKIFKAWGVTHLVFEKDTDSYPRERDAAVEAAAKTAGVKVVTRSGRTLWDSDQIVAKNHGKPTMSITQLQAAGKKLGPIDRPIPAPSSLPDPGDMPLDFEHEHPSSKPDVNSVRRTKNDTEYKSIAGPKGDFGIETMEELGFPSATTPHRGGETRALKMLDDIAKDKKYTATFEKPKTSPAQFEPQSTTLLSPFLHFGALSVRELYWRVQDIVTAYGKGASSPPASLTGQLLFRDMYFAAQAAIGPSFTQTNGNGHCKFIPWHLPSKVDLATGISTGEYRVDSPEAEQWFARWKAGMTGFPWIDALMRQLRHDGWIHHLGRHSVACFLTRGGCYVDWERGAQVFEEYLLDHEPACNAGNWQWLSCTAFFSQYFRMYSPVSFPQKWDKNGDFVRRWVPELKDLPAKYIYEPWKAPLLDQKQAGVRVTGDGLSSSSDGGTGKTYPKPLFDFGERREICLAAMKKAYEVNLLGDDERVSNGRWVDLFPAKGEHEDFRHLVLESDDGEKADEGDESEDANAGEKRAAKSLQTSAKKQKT

B1: Beauveria bassiana white collar protein WC1 (protein, UniProt J5J1K4 1-963)
chain: MEGYYPPNHLPPREQQRQQQNNPNQQQQQQQQQQQQQQMPPGMPRSNTFNNQMMGNPTLLQRRASASIGFAPQQLSDAVDARRLSLAADRVAMNPPPATGSSNFMGFQPSPQQLNNFSMLDASNMGNIIADGNSFPGISPDAMGNLVSAQFANINMGAMFSNADPGSSAVLEGQISPNAMQLSITSNETMQFNNGTQYNAFTNPQDNTVPAPQQMNQAKTAQDPSHDARTGASAPAVDQAIQSLPRHELSAGSAVSPAQEMAPSTGATQPSTSSVATTPNATANLKEPREKSIYSKSGFDMLKALWLVASRKNPKIHLGAVDMSCAFVVCDVSMNDCPIIYVSDNFQNLTGYSSHDIVGQNCRFLQAPDGKVEAGTKREFVDNGTVFNLKKMIQERQEVQQSLINYRKGGKPFLNLLTMIPIPWDTDEVRYFIGFQIDLVECPDAIAGSEFGGVAVNYKHSDIGQYIWTPPSSAFWEADNGQTLGVDDVSTILQQFNAKGIASDWHRQSWDKMLLENCDDVIQVLSLKGLFLYLSPACKRVLEYDAAELVGNSLSSICHPSDIVPVTRELKDATTGDQVNIVFRIRRKQSGYTWFESHGSLYVEQGKGRKCIILVGRKRPVFSISRRNIESNGGIGDSEMWTKLSTSGTFLYVSSNVRSLLDLQPESLVATSIQELMRKDSRPEFGRTLEKARRGKIVTCKHEVLNRRGQGLQAQTTLYPGDAIEGQKPSFLLAQTKLLKASSRTLAPATSTAGSNASRSVHGQISQPAGGGLGHGNQEEALASDDNIFDELRTTKCSSWQFELRQMEKVNRILAEELGGLLSSKKKRKRRKGVGNVIRDCANCHTRNTPEWRRGPSGQRDLCNSCGLRWAKQMGRVSPRNSVRNGDTQSGKSASPIHSSPMHKEVPASANTPDHQVKRSATTDVPATVDAISPPTTNQQATRAASAGTVMASIQEERETSLP
B2: Beauveria bassiana white collar protein WC2 (protein, UniProt J5JYA0 1-499)
chain: MSQGHAPPPNGYSAYNDLNLAFLSDASAPQHMMMSSAVDDPGPYNANEGMRFTDAQLFGEFTSDLGMSGFGSADASLDSFNPDFALDAMLGNSHANSALDPPSNNIPGGGPSPVGGPPQPMQLTNPGTSTLNEFTKRRNWPAKIVEELRDWLHILDANGRLKFVSRSVAEVAGYAEDDLRDIFLKDLIHPDDQGLFVAEFNESIASGNPLRIFYRLKKKDGVYGIFEAVGHAHIAAAKFAPNPSNQSPFCQAVFMVARPYPTRNAALLDSFLEHKIENERLKRRIAELQREEQADAHDACQQLSQDMSQSAATVSNMTFSDLTGSSATAQHGFASADTTMAGTSDSLEFNGALTRENLEGAATAAHRDSLRDKMARFEGGSHVDTIEMLTGLRYMEGERSRGITTGNTSPALIKGDAGIAIPKDRDGRLGEKKKKIKVSEEYVCTDCGTLDSPEWRKGPSGPKTLCNACGLRWAKKEKKRTKLAGASQPTPPTEFGAGS

Columns and labels:
[1] = target: T1, Beauveria bassiana photolyase Phr1 (B. bassiana); assay: two-hybrid; ORFs in pGADT7 (AD, prey; strain Y187) or pGBKT7 (BD, bait; strain Y2HGold), pairwise mating; diploids grown 3 days at 30 °C on double-dropout (SDM/-Leu/-Trp/X-α-Gal/AbA) and quadruple-dropout (SDM/-Leu/-Trp/-Ade-His/X-α-Gal/AbA) medium; growth on quadruple dropout read as interaction
[2] = target: T2, Beauveria bassiana photolyase Phr2 (B. bassiana); assay: as above

| Binder | binding [1] | binding [2] |
| --- | --- | --- |
| B1 | no binding | no binding |
| B2 | no binding | no binding |
